# Reference: PMC7819943, “Rice protein-binding microarrays: a tool to detect cis-acting elements near promoter regions in rice”
# Some of the results follow.
# Target: T1, OsWOX13 (Oryza sativa, UniProt Q5QMM3 1-267)
# T1 sequence: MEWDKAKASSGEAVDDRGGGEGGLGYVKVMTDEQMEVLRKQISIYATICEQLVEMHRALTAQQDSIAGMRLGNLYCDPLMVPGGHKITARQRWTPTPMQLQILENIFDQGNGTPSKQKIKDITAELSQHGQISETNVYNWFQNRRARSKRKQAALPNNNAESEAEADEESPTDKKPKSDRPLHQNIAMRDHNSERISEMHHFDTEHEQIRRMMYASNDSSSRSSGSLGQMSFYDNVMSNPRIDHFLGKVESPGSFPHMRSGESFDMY
# Experiment: protein-binding microarray (RPBM); PBS, 2% BSA, 51.3 ng/ul salmon testes DNA, 50 uM zinc acetate, 200 nM TF, 25 C, 1 h; high values mean tight binding
# Details: protein: recombinant; tags: N-terminal polyhistidine and DsRed monomer fusion (pET32a); label: CyDye5-dUTP incorporated in the synthesized complementary strand; 3' TTTTT single-stranded linker to array surface; dsDNA, one strand shown
# Procedure, shortened: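 Ni–NTA purification followed expression in E. coli BL21-CodonPlus of transcription factors fused N-terminally to a polyhistidine tag and DsRed. At 200 nM in PBS with 2% BSA, salmon testes DNA and 50 µM zinc acetate, the protein was incubated for 1 h at 25 °C with a custom Agilent array that had been primer-extended with Cy5-dUTP and blocked with 2% BSA. After washing, the array was read on an Axon 4000B scanner. The binding signal is per-feature fluorescence intensity in arbitrary units.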
row,Sequence,binding signal
1,TACGTAATTAGGAGCTGCCTAAGCGGTCAAGTGCTACTGCCGGAGTCACCTAGTGCAG,12800 fluorescence intensity (a.u.)
2,AGTACAAATGACGGATTAATTAGGCTTAATAAATTCGTCTCGGAGTCACCTAGTGCAG,19200 fluorescence intensity (a.u.)
3,TCTAGTCATCCGATTTCCAATCAAAATCGTCTAAACCTTCCGGAGTCACCTAGTGCAG,4920 fluorescence intensity (a.u.)
4,ATTATAAGTAAATTAATTAACTCGCAAACATTTCAAGCATCGGAGTCACCTAGTGCAG,14400 fluorescence intensity (a.u.)
5,TAAGTGATGAGATTTTCTTTGTTAATGAACAAGGCAAAAGCGGAGTCACCTAGTGCAG,3720 fluorescence intensity (a.u.)
6,ACCAATATATATATACTAATTAAATTTGTGGAACTTGGATCGGAGTCACCTAGTGCAG,4420 fluorescence intensity (a.u.)
7,AAAATCCGATTAGTTAATTAGTTAGTTAAGTGATGTGGTACGGAGTCACCTAGTGCAG,16200 fluorescence intensity (a.u.)
8,CTTCAACTAATTTGGTTGTCGCTCTTGTCGCATAAGGTTGCGGAGTCACCTAGTGCAG,6070 fluorescence intensity (a.u.)
9,TACTGTAGACGCAATTGACTAAATAGGGTAAATTGGCTTACGGAGTCACCTAGTGCAG,6540 fluorescence intensity (a.u.)
10,CCAAATTGACTAATCAGATTCATAAAAGTCACCAGAACTTCGGAGTCACCTAGTGCAG,33300 fluorescence intensity (a.u.)
11,AAAAGGATTAATTATCATCTAATAACCAGTTCGATTTCCTCGGAGTCACCTAGTGCAG,12800 fluorescence intensity (a.u.)
12,TCACTTTGGATTGGATAAATTTACCATTGTTGCGATTTGGCGGAGTCACCTAGTGCAG,13700 fluorescence intensity (a.u.)
13,CATGTGATTGGAACCATCGATCGCACATGCGTGGAGCAATCGGAGTCACCTAGTGCAG,45900 fluorescence intensity (a.u.)
14,TAAATATATTGACTATTGAACTTGCTCTTATGCATATCGCCGGAGTCACCTAGTGCAG,7120 fluorescence intensity (a.u.)
15,ATATAATAATAATATAGATAGATGGGGATCTAATTAAGCACGGAGTCACCTAGTGCAG,6650 fluorescence intensity (a.u.)
16,CATCCTAATTGAAACAGAACTCTGCTACTGCCTACTGCTTCGGAGTCACCTAGTGCAG,44400 fluorescence intensity (a.u.)
17,ATAAAATTGTATTTTACCAGTCTTGGAGATTTTAATCTTGCGGAGTCACCTAGTGCAG,3730 fluorescence intensity (a.u.)
18,ACAATAGATTAATCGTATAAGACACTAGATTTAACGTGAACGGAGTCACCTAGTGCAG,6400 fluorescence intensity (a.u.)
19,TTTCTAAGATTTGATTTAAACATTGTCCTAAACGACTTACCGGAGTCACCTAGTGCAG,12300 fluorescence intensity (a.u.)
20,CGATAATTAGAAGTTCTCCCAAATAGGCCCATTGTTTCACCGGAGTCACCTAGTGCAG,27700 fluorescence intensity (a.u.)
21,TCTGTTAATAGATATGTAGACAGTCCCTATATGAAAACAGCGGAGTCACCTAGTGCAG,11900 fluorescence intensity (a.u.)

row,Sequence,binding signal
1,ACTTAACAATACTAATCGTCTTTGTCTATACTAATCGAGCCGGAGTCACCTAGTGCAG,4170 fluorescence intensity (a.u.)
2,TAGCCACCGTGATTGATTGATCTATAGATCGATTGGTGCCCGGAGTCACCTAGTGCAG,64000 fluorescence intensity (a.u.)
3,AAATATTGATTTAAGTAGGTGAGAGGTCCCAGTTGATGGACGGAGTCACCTAGTGCAG,15400 fluorescence intensity (a.u.)
4,CCATTTAGTTGACATACAATAAATGAGTGGGCATCAACCCCGGAGTCACCTAGTGCAG,3740 fluorescence intensity (a.u.)
5,ACAAACATAACATAGAATTTATTTAACTAGCGCTATACATCGGAGTCACCTAGTGCAG,3990 fluorescence intensity (a.u.)
6,CACAAAGTTAATCTAATTAAAATTAAAATTTAATACTACACGGAGTCACCTAGTGCAG,3860 fluorescence intensity (a.u.)
7,CATCTTTCTAATTAGGACCAAATTTAATGGTCGTCAACACCGGAGTCACCTAGTGCAG,21400 fluorescence intensity (a.u.)
8,GTGGACCAATCAATTAATAATCTACGTACAACAAGGACCCCGGAGTCACCTAGTGCAG,40600 fluorescence intensity (a.u.)
9,TAAATTTACTTTTAATAATCATTGCACCAAACTTTGTGAACGGAGTCACCTAGTGCAG,4810 fluorescence intensity (a.u.)
10,AGATTAATTTAAGATTGGTCGAAACTAAAACGTCAATAAACGGAGTCACCTAGTGCAG,15300 fluorescence intensity (a.u.)
11,CCTGATTATCCCGTGTCTTCTCCGCTTCTGGGTTGGTTGCCGGAGTCACCTAGTGCAG,31500 fluorescence intensity (a.u.)
12,GAGTTTAATGACTAACTTGTTAATGTTAACCAGGCACGCACGGAGTCACCTAGTGCAG,4800 fluorescence intensity (a.u.)
13,GGGACCATATATCAATTATGCTGACAAGACAATCCATCTGCGGAGTCACCTAGTGCAG,8560 fluorescence intensity (a.u.)
14,AGGTAATCATATTGTTGTTATTCGTGGATGGGGTGGGCTCCGGAGTCACCTAGTGCAG,11100 fluorescence intensity (a.u.)
15,TTTATTAATGATCTAATCTCTAACTAAACTCCCTATCAATCGGAGTCACCTAGTGCAG,6590 fluorescence intensity (a.u.)
16,ATTGATTGCTTTACGAGTTATATATGTGCACCTGGAAGAACGGAGTCACCTAGTGCAG,40500 fluorescence intensity (a.u.)
17,TACCAGATTGGGGTGTGACAGTACTGCATTTACAATATCACGGAGTCACCTAGTGCAG,4820 fluorescence intensity (a.u.)
18,GCTAATTTGACTCGGTTTTCATCTGACGTGGCATTGACGTCGGAGTCACCTAGTGCAG,35600 fluorescence intensity (a.u.)
19,ATTAGTCAAATTTTAAAATTTTAACCTTAAATTTAGAGCTCGGAGTCACCTAGTGCAG,8200 fluorescence intensity (a.u.)
20,TTTGTATAAATTTCGTGCAAATTTACAAATCAAGTCCGAACGGAGTCACCTAGTGCAG,7560 fluorescence intensity (a.u.)
21,TTTTCCTTGTGATTAATTCTTGGTAGCTTCTGCTCCTGCCCGGAGTCACCTAGTGCAG,4190 fluorescence intensity (a.u.)
